# This is one part of the list. The data scatter; read single values as rough.
# T1: GGA1_VHS__Q9UJY5_1_157
# T1 chain: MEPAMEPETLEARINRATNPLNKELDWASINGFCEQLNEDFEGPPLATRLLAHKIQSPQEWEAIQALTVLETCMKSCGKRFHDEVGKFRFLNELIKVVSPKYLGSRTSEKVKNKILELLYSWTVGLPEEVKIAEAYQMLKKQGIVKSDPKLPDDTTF
# T2: GGA3_VHS__Q9NZ52_1_166
# T2 chain: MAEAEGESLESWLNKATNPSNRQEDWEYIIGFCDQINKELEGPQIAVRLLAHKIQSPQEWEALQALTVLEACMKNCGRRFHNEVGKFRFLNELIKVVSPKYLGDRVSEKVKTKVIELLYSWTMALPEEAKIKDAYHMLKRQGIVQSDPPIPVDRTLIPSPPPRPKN
# Molecular target: T1, GGA1_VHS__Q9UJY5_1_157
# Experiment: mutation enrichment score (mutant vs wild-type peptide binding to bait); baits are purified protein domains named by gene / domain / UniProt id / residues; peptides come from disordered regions of human proteins; higher = mutation enhances binding relative to wild type
# Conditions: number of wild-type / mutant comparisons summed (bounds the score): 5; paper call: no_effect; wild-type window: …
row,Binder,mutation enrichment score
1,RNESLAQYNPKLDVKLLYPVYKYQQDQVVKEDNIEAVGKKL [S429Y S429Y],-3
2,SGRARQQDEEMLELPAPAEVTAKNQSLEGDTTKGTSEMSEK [A441T A441T],5
3,TEDKTDISSGRARQQDEEMLKLPAPAEVAAKNQSLEGDTTK [E433K E433K],0
4,ISSGRARQQDEEMLELPAPAKVAAKNQSLEGDTTKGTSEMS [E439K E439K],4
5,PSRAVRQSVTSFPDADAFHHHVHDDDLLSSSEEECKDRERP [Q133H Q133H],-2.5
6,LHKVLNQLEELLSDMKADVTLLPATLSRIPPIAARLQMSER [R1881L R1881L],2
7,TGDLDLLSAFRRTSLAGGGRWISDSHEDTGILDFSSLLKKR [R282W R282W],5
8,ALQDTDDSDDDPVLIPGARYQAGPGDRRSAVARIQEFFRRR [R670Q R670Q],2
9,AVTPLKRAGWQCPECKVCQNSKQSGEDSKMLVCDTCDKGYH [C394S C394S],2
10,IQDSFASPDLPLLTCLTQDQKFAPDSLFHQSELSFAPLRGI [E237K E237K],-1.6
11,TPVMMAAVKTYRWQCIECKCWNICGTSENDDQLLFCDDCDR [C330W C330W],5
12,PEASDGSGSWEDAALLTEANPPAPAPASASAPVLETLGSSE [L363P L363P],1
13,YDTIYAHQDKRDDVLIGLKSAALRFGENTKPWLSGFSVAML [T267A T267A],-3.4
14,EAPSQEQKNLAAIQEGENIFCLAVEDIETDTELLIGYLDSD [Y107C Y107C],5
15,TTDMEDGPIVKLASNLGVEDENLLCGEELSYPNVFLVFLNG [V523E V523E],3

# Molecular target: T2, GGA3_VHS__Q9NZ52_1_166
# Experiment: as above
# Conditions: number of wild-type / mutant comparisons summed (bounds the score): 6; paper call: enhanced; wild-type window: …
row,Binder,mutation enrichment score
1,SGRARQQDEEMLELPAPAEVTAKNQSLEGDTTKGTSEMSEK [A441T A441T],6
2,ISSGRARQQDEEMLELPAPAKVAAKNQSLEGDTTKGTSEMS [E439K E439K],6
3,TEDKTDISSGRARQQDEEMLQLPAPAEVAAKNQSLEGDTTK [E433Q E433Q],6

# Same assay, conditions: number of wild-type / mutant comparisons summed (bounds the score): 6; paper call: no_effect; wild-type window: …
row,Binder,mutation enrichment score
1,TGDLDLLSAFRRTSLAGGGRWISDSHEDTGILDFSSLLKKR [R282W R282W],5
2,TPVMMAAVKTYRWQCIECKCWNICGTSENDDQLLFCDDCDR [C330W C330W],5
3,EAPSQEQKNLAAIQEGENIFCLAVEDIETDTELLIGYLDSD [Y107C Y107C],2

# Molecular target: T1, GGA1_VHS__Q9UJY5_1_157
# Experiment: as above
# Conditions: number of wild-type / mutant comparisons summed (bounds the score): 10; paper call: diminished; wild-type window: …
row,Binder,mutation enrichment score
1,KVAAYDKLEKTKTRLQQELDGLLVDLDHQRQSACNLEKKQK [D1424G D1424G],-10
2,KVAAYDKLEKTKTRLQQELDHLLVDLDHQRQSACNLEKKQK [D1424H D1424H],-10
3,KVAAYDKLEKTKTRLQQELDNLLVDLDHQRQSACNLEKKQK [D1424N D1424N],-10
4,KVAAYDKLEKTKTRLQQELDYLLVDLDHQRQSACNLEKKQK [D1424Y D1424Y],-10

# Molecular target: T2, GGA3_VHS__Q9NZ52_1_166
# Experiment: as above
# Conditions: number of wild-type / mutant comparisons summed (bounds the score): 12; paper call: diminished; wild-type window: …
row,Binder,mutation enrichment score
1,KVAAYDKLEKTKTRLQQELDGLLVDLDHQRQSACNLEKKQK [D1424G D1424G],-8
2,KVAAYDKLEKTKTRLQQELDHLLVDLDHQRQSACNLEKKQK [D1424H D1424H],-8
3,KVAAYDKLEKTKTRLQQELDNLLVDLDHQRQSACNLEKKQK [D1424N D1424N],-8
4,KVAAYDKLEKTKTRLQQELDYLLVDLDHQRQSACNLEKKQK [D1424Y D1424Y],-8

# Molecular target: T1, GGA1_VHS__Q9UJY5_1_157
# Experiment: as above
# Conditions: number of wild-type / mutant comparisons summed (bounds the score): 10; paper call: enhanced; wild-type window: …
row,Binder,mutation enrichment score
1,RHGDLNRFLRSHGPDAKLLAVGEDVAPGPLGLGQLLAVASQ [G613V G613V],9.3
2,TEDKTDISSGRARQQDEEMLQLPAPAEVAAKNQSLEGDTTK [E433Q E433Q],7

# From the supplement of paper PMC11369174, “Proteome-scale characterisation of motif-based interactome rewiring by disease mutations” (Molecular Systems Biology, 2024)
